Reference: PMC7212617
Results are given in words; binding and its absence hold for the method and conditions named. Binding seen in cells or lysates may run through a third protein. Some results given as binding are weak or reduced against the parent protein; the word gives no strength. Tags and fused reporters may be left off the sequences shown. One block for each binder: values may come before it.

Key:
[1] = molecular target: T1, endogenous CTCF tagged with the auxin-inducible degron and eGFP (CTCF-AID-eGFP) (mouse (endogenous in E14Tg2a mESC)), Q61164; assay: co-IP; nuclear lysates (2 mg) of mESCs expressing the transgenes in the presence of endogenous CTCF-AID-eGFP; GFP-Trap magnetic beads 2 h at 4 °C pull down endogenous CTCF; blot with anti-FLAG against the transgenes; settings: remark: other sources report otherwise
T1 chain: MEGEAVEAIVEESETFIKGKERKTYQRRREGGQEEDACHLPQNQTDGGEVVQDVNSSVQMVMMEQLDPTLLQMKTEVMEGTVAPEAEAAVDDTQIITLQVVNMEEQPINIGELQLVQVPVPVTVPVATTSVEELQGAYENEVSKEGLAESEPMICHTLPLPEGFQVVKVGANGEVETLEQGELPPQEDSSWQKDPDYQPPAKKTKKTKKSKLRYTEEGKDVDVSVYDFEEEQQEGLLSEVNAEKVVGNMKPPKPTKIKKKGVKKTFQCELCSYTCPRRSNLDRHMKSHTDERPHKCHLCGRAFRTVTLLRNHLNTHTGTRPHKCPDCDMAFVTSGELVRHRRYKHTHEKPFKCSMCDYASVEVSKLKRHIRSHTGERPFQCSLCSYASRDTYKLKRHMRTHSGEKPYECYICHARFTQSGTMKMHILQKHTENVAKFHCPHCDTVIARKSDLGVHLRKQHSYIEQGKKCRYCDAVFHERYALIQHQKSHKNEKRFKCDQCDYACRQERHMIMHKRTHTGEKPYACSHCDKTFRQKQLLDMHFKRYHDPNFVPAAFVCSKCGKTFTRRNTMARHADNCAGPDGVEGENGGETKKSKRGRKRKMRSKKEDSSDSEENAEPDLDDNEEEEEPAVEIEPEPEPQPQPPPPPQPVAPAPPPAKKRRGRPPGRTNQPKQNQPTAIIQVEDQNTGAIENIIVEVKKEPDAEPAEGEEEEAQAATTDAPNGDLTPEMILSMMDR

[2] = molecular target: T2, endogenous CTCF tagged with the auxin-inducible degron and eGFP (CTCF-AID-eGFP) (mouse (endogenous in E14Tg2a mESC)) (UniProt Q61164); assay: as above
T2 sequence: T1 chain

binding [1]: binds
B1: transgenic CTCF (3x FLAG-CTCF-mRuby2), doxycycline-inducible, knocked in at the Tigre locus, Q61164 1-736 (protein)
chain: T1 chain

binding [2]: binds
B2: CLC: CTCF N terminus - CTCFL zinc fingers - CTCF C terminus chimeric protein (protein, UniProt Q61164 1-265; A2APF3 259-568; Q61164 578-736)
chain: MEGEAVEAIVEESETFIKGKERKTYQRRREGGQEEDACHLPQNQTDGGEVVQDVNSSVQMVMMEQLDPTLLQMKTEVMEGTVAPEAEAAVDDTQIITLQVVNMEEQPINIGELQLVQVPVPVTVPVATTSVEELQGAYENEVSKEGLAESEPMICHTLPLPEGFQVVKVGANGEVETLEQGELPPQEDSSWQKDPDYQPPAKKTKKTKKSKLRYTEEGKDVDVSVYDFEEEQQEGLLSEVNAEKVVGNMKPPKPTKIKKKGVKKTCDTCPFTSSKLSTFNRHIKIHSNERPHLCHLCLKAFRTVTLLRNHVNTHTGTRPHKCRDCDMAFVTSGELVRHRRYKHTYEKPFKCSLCKYASVEASKMKRHIRSHTGERPFQCCQCAYASRDSYKLKRHMRTHSGEKPYECPTCHVRFTQSGTMKIHIAQKHGENVPKYECPHCATIIARKSDLRVHLRNLHSQSPEEMKCRYCPAGFHERYALIQHQRTHKNEKKFKCKQCDYACKQERCLKAHMRMHTGEKPFSCLACNKHFRQKQLLTVHLRKYHDPNFVPNLHLCLKCDKRFSRWSNLQRHRKKCAGPDGVEGENGGETKKSKRGRKRKMRSKKEDSSDSEENAEPDLDDNEEEEEPAVEIEPEPEPQPQPPPPPQPVAPAPPPAKKRRGRPPGRTNQPKQNQPTAIIQVEDQNTGAIENIIVEVKKEPDAEPAEGEEEEAQAATTDAPNGDLTPEMILSMMDR

binding [2]: binds
B3: LCL: CTCFL N terminus - CTCF zinc fingers - CTCFL C terminus chimeric protein (protein, UniProt A2APF3 1-258; Q61164 266-577; A2APF3 569-636)
chain: MAAAEVPVPSGYFTQIKEQKLKPGDLEEEKEEDGVQRVEAQEGVVKEVEAENSCLLLEARAPVESDRRILTLQTVHLESQDVHLQGLGWLSVPHSEELSGTVPEAEGILQLPSVLWLDPEPQLSLQHCVTVSIPEELYPPEELQRIHFHLLRENVLMAEENPELTPDLDESTALKKPEEDEKDQLPPQGETDKREERLLLLEMKPKEGKDDEIVLTISHLSLEEQQDPPAANQTSVPGAKAAKPKRRRQTKGKPQSFQFQCELCSYTCPRRSNLDRHMKSHTDERPHKCHLCGRAFRTVTLLRNHLNTHTGTRPHKCPDCDMAFVTSGELVRHRRYKHTHEKPFKCSMCDYASVEVSKLKRHIRSHTGERPFQCSLCSYASRDTYKLKRHMRTHSGEKPYECYICHARFTQSGTMKMHILQKHTENVAKFHCPHCDTVIARKSDLGVHLRKQHSYIEQGKKCRYCDAVFHERYALIQHQKSHKNEKRFKCDQCDYACRQERHMIMHKRTHTGEKPYACSHCDKTFRQKQLLDMHFKRYHDPNFVPAAFVCSKCGKTFTRRNTMARHADNCDPEHETLAPNKDRRPVTRTQASEGEAGHKEGEPQCPGEQALGHQGEAAGSQSPDHGLTCEIIFNMMDK

binding [2]: no binding
B4: transgenic CTCFL (3x FLAG-CTCFL-mRuby2), doxycycline-inducible, knocked in at the Tigre locus (protein, UniProt A2APF3 1-636)
chain: MAAAEVPVPSGYFTQIKEQKLKPGDLEEEKEEDGVQRVEAQEGVVKEVEAENSCLLLEARAPVESDRRILTLQTVHLESQDVHLQGLGWLSVPHSEELSGTVPEAEGILQLPSVLWLDPEPQLSLQHCVTVSIPEELYPPEELQRIHFHLLRENVLMAEENPELTPDLDESTALKKPEEDEKDQLPPQGETDKREERLLLLEMKPKEGKDDEIVLTISHLSLEEQQDPPAANQTSVPGAKAAKPKRRRQTKGKPQSFQCDTCPFTSSKLSTFNRHIKIHSNERPHLCHLCLKAFRTVTLLRNHVNTHTGTRPHKCRDCDMAFVTSGELVRHRRYKHTYEKPFKCSLCKYASVEASKMKRHIRSHTGERPFQCCQCAYASRDSYKLKRHMRTHSGEKPYECPTCHVRFTQSGTMKIHIAQKHGENVPKYECPHCATIIARKSDLRVHLRNLHSQSPEEMKCRYCPAGFHERYALIQHQRTHKNEKKFKCKQCDYACKQERCLKAHMRMHTGEKPFSCLACNKHFRQKQLLTVHLRKYHDPNFVPNLHLCLKCDKRFSRWSNLQRHRKKCDPEHETLAPNKDRRPVTRTQASEGEAGHKEGEPQCPGEQALGHQGEAAGSQSPDHGLTCEIIFNMMDK
